Measurements taken from PubChem BioAssay AID485344 (National Center for Advancing Translational Sciences (NCATS), 2010).
Hit rate of the full screen: of about 340,000 compounds, about 6,900 (2%) were called active. Rule as the data show it: active = inhibition above about 30%; inactive = below that, where a call was filed. The entries are a selection whose mix differs from that of the whole data set. Where no call is shown, the source filed none.

Biological target: D(2) dopamine receptor (Homo sapiens) (UniProt P14416)
Sequence of UniProt P14416 (P14416 whole entry, looked up): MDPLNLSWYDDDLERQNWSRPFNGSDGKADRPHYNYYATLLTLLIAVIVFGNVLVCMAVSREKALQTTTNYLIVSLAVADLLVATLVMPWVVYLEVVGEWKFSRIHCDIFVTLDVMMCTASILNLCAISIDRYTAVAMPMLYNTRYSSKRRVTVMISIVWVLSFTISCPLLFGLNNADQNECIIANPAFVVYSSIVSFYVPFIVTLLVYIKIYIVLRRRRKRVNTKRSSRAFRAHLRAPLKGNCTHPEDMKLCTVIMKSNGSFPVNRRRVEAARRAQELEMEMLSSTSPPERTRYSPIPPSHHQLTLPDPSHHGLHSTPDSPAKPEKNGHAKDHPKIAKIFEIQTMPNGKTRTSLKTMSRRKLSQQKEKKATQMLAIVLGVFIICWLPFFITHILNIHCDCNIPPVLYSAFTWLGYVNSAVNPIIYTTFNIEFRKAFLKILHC
Experiment: HTS Assay for Allosteric Antagonists of the Human D2 Dopamine Receptor: Primary Screen for Antagonists; also: 0% is about no effect
Conditions: HEK293 TREx D2 cells, calcium flux, dopamine EC80; at 10 µM; stronger effect = higher value
Outline: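 Read-out: kinetic calcium fluorescence (1 cycle/s) in inducible HEK293 T-REx D2 cells after an EC80 dopamine addition that followed 180 s compound preincubation. Loss of the dopamine response indicates antagonism.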

| Structure (SMILES) | inhibition |
| --- | --- |
| O=C(Cc1ccc(NC(=O)N2CCSc3ncccc32)cc1)NCc1ccccc1Cl | 8.45% |
| CCOc1ccc(S(=O)(=O)Nc2ccc3oc(C)c(C(=O)OCCOC)c3c2)cc1 | 3.98% |
| O=S(=O)(Nc1cccc(-c2ccc(N3CCCCC3)nn2)c1)c1cccs1 | -22.6% |
| CC1CCc2nc(NC(=O)COc3ccc(C(C)(C)C)cc3)sc2C1 (stereo not drawn) | -18.1% |
| CCOC(=O)c1[nH]c2ccc(OCC)cc2c1NC(=O)CN1CCN(c2ccccn2)CC1 | active: 36.1% |
| Cc1cccc(CCn2c(=O)c3ccccc3n(Cc3cccc(F)c3)c2=O)c1 | -26.9% |
| COc1ccc(OC)c(C2CC(=O)c3c([nH]c(C(=O)OCC4CCCCC4)c3C)C2)c1 (stereo not drawn) | -20.1% |
| CN1CCN(C(c2ccccc2)c2sc3nc(-c4ccco4)nn3c2O)CC1 (stereo not drawn) | -3.05% |
| CCOC(=O)c1nnc2c(-c3ccc(OC)cc3)c(C)nn2c1N | -8.58% |
| COc1ccccc1NC(=O)n1ncc2c(C)cccc21 | -13.7% |
| Cc1nc2c(C(=O)NCc3ccccc3Cl)cnn2c(C)c1Cc1c(F)cccc1Cl | -13.5% |
| COC(=O)c1ccc(NC(=O)C2CC(=O)OC2c2ccccc2)cc1 (stereo not drawn) | active: 35.3% |
| CC(=O)N1CCCc2cc(S(=O)(=O)N3CCC(C(=O)NCCC(C)C)CC3)ccc21 | 0.391% |
| O=C(NC1CC(=O)N(c2ccc(F)cc2)C1)c1cc2ccccc2o1 (stereo not drawn) | -14.5% |
| CC(C)CCCN1CCN=C1Nc1ccccc1 | active: 39% |
| COc1ccc(-c2cc(C(=O)Nc3c(C(=O)c4ccc(Cl)cc4)oc4ccccc34)no2)cc1 | 3.04% |
| CCOC(=O)c1cc2c(=O)n3ccccc3nc2n(CC2CCCO2)c1=NC(=O)c1cccc(C(F)(F)F)c1 (stereo not drawn) | -7.6% |
| Cc1cccc(NC(=O)c2cnn(-c3ccccc3)c2-n2cccc2)c1C | -21.5% |
| O=C(O)c1cc(-c2cccs2)nc2ccc(Br)cc12 | active: 33.6% |
| CCOC(=O)N1CCN(S(=O)(=O)N2CCCC(C(=O)NCc3cccc(OC)c3)C2)CC1 (stereo not drawn) | -20.4% |
| CCC1CN(C(=O)N2CCC(C(=O)NCc3ccc(C)o3)CC2)c2cc(C)ccc2O1 (stereo not drawn) | 17.8% |

| Structure (SMILES) | inhibition |
| --- | --- |
| CCOC(=O)c1ccc(NC(=O)C2Cc3ccccc3CN2S(=O)(=O)c2ccc(Cl)cc2)cc1 (stereo not drawn) | 13.7% |
| CC(NC(=O)Cn1ncc2c3ccccc3n(Cc3ccc(F)cc3)c2c1=O)c1ccccc1 (stereo not drawn) | 3.29% |
| O=C(NCC(c1cccs1)S(=O)(=O)c1cccs1)c1ccccc1 (stereo not drawn) | 12.2% |
| COc1ccc(Cl)cc1NS(=O)(=O)c1cc(-c2cc(C)no2)ccc1C | 10.3% |
| Cc1cc(Br)ccc1NC(=O)CCS(=O)(=O)c1cccc2nonc12 | -5.79% |
| Cc1cc(C)c(Cn2c(C)c(CNCCCc3ccccc3)c(C(=O)O)c2C)c(C)c1 | -6.73% |
| CC(=O)c1sc2c(c1C)c(=O)n(-c1ccc(Cl)cc1)c(=O)n2Cc1ccc(Cl)cc1 | 2.22% |
| Cc1ccc(C)c(N2CCN(C(=O)CN3C(=O)COc4ccc(S(=O)(=O)N5CCCCCC5)cc43)CC2)c1 | 7.21% |
| O=C(c1cccs1)N1CCN(Cc2cccnc2)CC1 | active: 58.8% |
| CCOC(=O)c1c(NC(=O)c2noc3c2CC(C(C)(C)C)CC3)sc2c1CCCC2 (stereo not drawn) | 28.1% |
| COc1cc2c(=O)c(S(=O)(=O)c3ccc(F)cc3)cn(Cc3ccccc3C)c2cc1OC | 0.261% |
| Cc1ccc(-n2cc(-c3ccccc3)c3c(NC4CCCC4)ncnc32)cc1 | -3.07% |
| Cc1ccc(-c2noc(-c3ccc(N4CCC(C)CC4)c([N+](=O)[O-])c3)n2)cc1 | -5.75% |
| Cc1cccc(N(C)C(=O)CN2C(=O)COc3ccc(S(=O)(=O)N4CCCCCC4)cc32)c1 | -6.37% |
| Cn1c(CNC(=O)CSc2n[nH]c(-c3ccccc3Cl)n2)nc2ccccc21 | -24% |
| COc1cc(OC)c(OC)cc1CNCCSc1nnnn1-c1ccccc1 | 8.63% |
| CC(C)Cn1nc(C(=O)NCc2ccccc2CN2CCCC2)c2ccccc2c1=O | active: 44.9% |
| CCN(Cc1ccccc1)C(=O)C1CCN(c2ncnc3c2nc2n3CCCCC2)CC1 | -2.95% |
| COc1cccc(CNC(=O)c2cc3cccc4c3n2CC(C)S4)c1OC (stereo not drawn) | 1.79% |
| C#CCn1c(COc2ccccc2C)nc2ccccc21 | 2.11% |
| CC1CC(C)CN(C(=O)/C=C/c2ccc(S(=O)(=O)N3CCOCC3)cc2)C1 (stereo not drawn) | active: 30.4% |

| Structure (SMILES) | inhibition |
| --- | --- |
| Nc1nc(Nc2cccc(C(F)(F)F)c2)sc1C(=O)c1ccccc1 | -0.927% |
| Cc1cc(C)c2c(CC(=O)Nc3ccc(S(=O)(=O)N4CCCC(C)C4)cc3)coc2c1 (stereo not drawn) | 7.52% |
| Cc1ccc(OCC(=O)Nc2cccc(OCc3cc(=O)n4ccccc4n3)c2)cc1C | 11% |
| CCOc1cc(C2Nc3ccccc3-c3nnc(SCc4ccccc4)nc3O2)ccc1OC (stereo not drawn) | 4.18% |
| Cc1cc(Br)ccc1NC(=O)C(Cc1ccccc1)NS(=O)(=O)c1ccc(Br)s1 (stereo not drawn) | 14.8% |
| CCN(CC(=O)NC(c1ccccc1)c1ccccc1)Cc1nc2ccccc2c(=O)[nH]1 | active: 32.4% |
| CCC(C(=O)Nc1ccc(C(=O)OC)cc1)n1nc(-c2ccc(C)cc2)c2c(c1=O)CCCC2 (stereo not drawn) | 6.65% |
| O=C(Nc1ccc(Cl)cc1F)c1oc(=O)c2ccccc2c1-c1ccccc1 | -2.01% |
| O=C(NCc1ccc(Cl)cc1)c1ccc(CSCc2cccc(Cl)c2)o1 | 6.42% |
| Cc1ccccc1OC(=O)c1snnc1C | 6.26% |
| COc1cccc(-n2cnnn2)c1 | active: 37.5% |
| Cc1ccnc(NS(=O)(=O)c2ccc(NC(=O)C(C)(C)Oc3ccc(Cl)cc3)cc2)n1 | -2.86% |
| COc1ccc(OCc2nc3ccccc3n2C(C)c2ccccc2)cc1 (stereo not drawn) | 10.2% |
| CCOc1ccccc1NC(=O)CSc1nc2c(c(=O)[nH]1)CCC2 | 27.6% |
| CCOc1ccc(S(=O)(=O)N2CCN(c3cc(Cl)ccc3Cl)CC2)c2ccccc12 | 1.8% |
| O=c1[nH]c2ccc(NCc3ccc(-c4cccc(Cl)c4)o3)cc2[nH]1 | -12.7% |
| CCc1ccccc1NC(=O)C(CC)Sc1ncnc2c1sc1ccccc12 (stereo not drawn) | 20.5% |
| O=C(CCCCCn1c(=O)[nH]c2ccccc2c1=O)NCc1cccc(Cl)c1 | 18.1% |
| Cc1ccc(NC(=O)CN2C(=O)C(c3ccc(F)cc3)=NC23CCCCC3)c(C)c1 | 10.1% |
| Cn1c(=O)c2c(SCC(=O)N3CCc4ccccc43)nc(-c3cccc(F)c3)nc2n(C)c1=O | 1.82% |
| CCOc1ccccc1CNC(=O)C1CCN(S(=O)(=O)c2cccc3nonc23)CC1 | 3.67% |
